Results reported in the supplement of paper PMC8728848.
This is one part of the list.

Assays:
Experiment in all cases: glycan array binding signal (z-score within array); higher = stronger binding
Details in all cases: glycan notation: IUPAC condensed, linker removed
GalNAc(b1-4)GlcNAc = biological target: GalNAc(b1-4)GlcNAc
In short: (§1)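 Arrays were curated from the Consortium for Functional Glycomics database, 3228 in total, and kept only where the protein sequence was available. Binding is expressed as a within-array Z-score. This score was averaged across arrays of the same protein sequence at different concentrations or buffers and across linkers, and negative values can be read as non-binding.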

[1] = biological target: GalNAc(b1-4)GlcNAc(b1-2)Man
In short: as §1

[2] = biological target: GalNAc(b1-4)GlcNAc(b1-2)Man(a1-3)[GalNAc(b1-4)GlcNAc(b1-2)Man(a1-6)]Man(b1-4)GlcNAc(b1-4)GlcNAc
In short: as §1

[3] = biological target: GalNAc(b1-4)GlcNAc(b1-3)GalNAc(b1-4)GlcNAc
In short: as §1

GalNAc(b1-4)GlcNAc6S = biological target: GalNAc(b1-4)GlcNAc6S
In short: as §1

GalNAc(b1-6)GalNAc = biological target: GalNAc(b1-6)GalNAc
In short: as §1

GalNAc3S(b1-4)GlcNAc = biological target: GalNAc3S(b1-4)GlcNAc
In short: as §1

GalNAc3S(b1-4)GlcNAc3S = biological target: GalNAc3S(b1-4)GlcNAc3S
In short: as §1

[4] = biological target: GalNAc3S(b1-4)[Fuc(a1-3)]GlcNAc
In short: as §1

GalNAc4S6S(b1-4)GlcNAc = biological target: GalNAc4S6S(b1-4)GlcNAc
In short: as §1

GalNAc6S(b1-4)GlcNAc = biological target: GalNAc6S(b1-4)GlcNAc
In short: as §1

Glc(a1-4)Glc = biological target: Glc(a1-4)Glc
In short: as §1

[5] = biological target: Glc(a1-4)Glc(a1-4)Glc(a1-4)Glc
In short: as §1

Glc(a1-6)Glc(a1-6)Glc = biological target: Glc(a1-6)Glc(a1-6)Glc
In short: as §1

[6] = biological target: Glc(a1-6)Glc(a1-6)Glc(a1-6)Glc
In short: as §1

Glc(b1-4)Glc = biological target: Glc(b1-4)Glc
In short: as §1

Glc(b1-6)Glc = biological target: Glc(b1-6)Glc
In short: as §1

GlcA(b1-3)Gal = biological target: GlcA(b1-3)Gal
In short: as §1

GlcA(b1-3)GlcNAc = biological target: GlcA(b1-3)GlcNAc
In short: as §1

GlcA(b1-6)Gal = biological target: GlcA(b1-6)Gal
In short: as §1

[7] = biological target: GlcA3S(b1-3)Gal(b1-4)GlcNAc(b1-2)Man
In short: as §1

[8] = biological target: GlcA3S(b1-3)Gal(b1-4)GlcNAc(b1-3)Gal(b1-4)Glc
In short: as §1

[9] = biological target: GlcNAc(a1-3)Gal(b1-4)GlcNAc
In short: as §1

[10] = biological target: GlcNAc(a1-4)Gal(b1-3)GlcNAc
In short: as §1

[11] = biological target: GlcNAc(a1-4)Gal(b1-4)GalNAc
In short: as §1

[12] = biological target: GlcNAc(a1-4)Gal(b1-4)GlcNAc
In short: as §1

[13] = biological target: GlcNAc(a1-4)Gal(b1-4)GlcNAc(b1-3)Gal(b1-4)Glc
In short: as §1

[14] = biological target: GlcNAc(a1-4)Gal(b1-4)GlcNAc(b1-3)Gal(b1-4)GlcNAc
In short: as §1

[15] = biological target: GlcNAc(a1-4)Gal(b1-4)GlcNAc(b1-3)Gal(b1-4)GlcNAc(b1-3)Gal(b1-4)GlcNAc
In short: as §1

[16] = biological target: GlcNAc(a1-4)Gal(b1-4)GlcNAc(b1-3)Gal(b1-4)[Fuc(a1-3)]GlcNAc(b1-3)Gal(b1-4)[Fuc(a1-3)]GlcNAc
In short: as §1

[17] = biological target: GlcNAc(a1-6)Gal(b1-4)GlcNAc
In short: as §1

[18] = biological target: GlcNAc(b1-2)Gal(b1-3)GalNAc
In short: as §1

[19] = biological target: GlcNAc(b1-2)Man(a1-3)[GlcNAc(b1-2)Man(a1-6)]Man(b1-4)GlcNAc(b1-4)GlcNAc
In short: as §1

[20] = biological target: GlcNAc(b1-2)Man(a1-3)[GlcNAc(b1-2)Man(a1-6)]Man(b1-4)GlcNAc(b1-4)[Fuc(a1-6)]GlcNAc
In short: as §1

[21] = biological target: GlcNAc(b1-2)Man(a1-3)[GlcNAc(b1-4)][GlcNAc(b1-2)Man(a1-6)]Man(b1-4)GlcNAc(b1-4)GlcNAc
In short: as §1

[22] = biological target: GlcNAc(b1-2)Man(a1-3)[GlcNAc(b1-4)][GlcNAc(b1-2)Man(a1-6)]Man(b1-4)GlcNAc(b1-4)[Fuc(a1-6)]GlcNAc
In short: as §1

[23] = biological target: GlcNAc(b1-2)[GlcNAc(b1-4)]Man(a1-3)[GlcNAc(b1-2)Man(a1-6)]Man(b1-4)GlcNAc(b1-4)GlcNAc
In short: as §1

[24] = biological target: GlcNAc(b1-2)[GlcNAc(b1-4)]Man(a1-3)[GlcNAc(b1-4)][GlcNAc(b1-2)Man(a1-6)]Man(b1-4)GlcNAc(b1-4)GlcNAc
In short: as §1

[25] = biological target: GlcNAc(b1-2)[GlcNAc(b1-4)]Man(a1-3)[GlcNAc(b1-4)][GlcNAc(b1-2)[GlcNAc(b1-6)]Man(a1-6)]Man(b1-4)GlcNAc(b1-4)GlcNAc
In short: as §1

[26] = biological target: GlcNAc(b1-2)[GlcNAc(b1-4)]Man(a1-3)[GlcNAc(b1-4)][GlcNAc(b1-2)[GlcNAc(b1-6)]Man(a1-6)]Man(b1-4)GlcNAc(b1-4)[Fuc(a1-6)]GlcNAc
In short: as §1

[27] = biological target: GlcNAc(b1-2)[GlcNAc(b1-6)]Man(a1-6)[GlcNAc(b1-2)Man(a1-3)]Man(b1-4)GlcNAc(b1-4)GlcNAc
In short: as §1

[28] = biological target: GlcNAc(b1-2)[GlcNAc(b1-6)]Man(a1-6)[GlcNAc(b1-2)Man(a1-3)]Man(b1-4)GlcNAc(b1-4)[Fuc(a1-6)]GlcNAc
In short: as §1

[29] = biological target: GlcNAc(b1-2)[GlcNAc(b1-6)]Man(a1-6)[GlcNAc(b1-4)][GlcNAc(b1-2)Man(a1-3)]Man(b1-4)GlcNAc(b1-4)GlcNAc
In short: as §1

GlcNAc(b1-3)Fuc = biological target: GlcNAc(b1-3)Fuc
In short: as §1

GlcNAc(b1-3)Gal = biological target: GlcNAc(b1-3)Gal
In short: as §1

B1: AFCNVH (Aspergillus fumigatus) (protein)
chain: MSLRGFHTTCDTIVLKDKHILSSRCKRPDGTYSFSEIDLNDCLGNNNGKFVWGGESFVDSASQVNLALEGGEGRPMLHAQLNDWHGSVQSASVNLGECIQNEAGGLEYMHC
For B1, the “glycan array binding signal (z-score)” value (GalNAc(b1-4)GlcNAc) was 2.36, the “glycan array binding signal (z-score)” value [1] was 4.18 and the “glycan array binding signal (z-score)” value [2] was 4.08. For the same binder, the “glycan array binding signal (z-score)” value [3] was 2.66, the “glycan array binding signal (z-score)” value (GalNAc(b1-4)GlcNAc6S) was 1.24 and the “glycan array binding signal (z-score)” value (GalNAc(b1-6)GalNAc) was 1.85. For the same binder, the “glycan array binding signal (z-score)” value (GalNAc3S(b1-4)GlcNAc) was 1.43, the “glycan array binding signal (z-score)” value (GalNAc3S(b1-4)GlcNAc3S) was -0.384 and the “glycan array binding signal (z-score)” value [4] was -0.504. The “glycan array binding signal (z-score)” value (GalNAc4S6S(b1-4)GlcNAc) was -0.38, the “glycan array binding signal (z-score)” value (GalNAc6S(b1-4)GlcNAc) was 2.51 and the “glycan array binding signal (z-score)” value (Glc(a1-4)Glc) was -0.359. The “glycan array binding signal (z-score)” value [5] was -0.23, the “glycan array binding signal (z-score)” value (Glc(a1-6)Glc(a1-6)Glc) was -0.33 and the “glycan array binding signal (z-score)” value [6] was -0.322. For the same binder, the “glycan array binding signal (z-score)” value (Glc(b1-4)Glc) was -0.467, the “glycan array binding signal (z-score)” value (Glc(b1-6)Glc) was -0.486 and the “glycan array binding signal (z-score)” value (GlcA(b1-3)Gal) was -0.316. The “glycan array binding signal (z-score)” value (GlcA(b1-3)GlcNAc) was -0.37, the “glycan array binding signal (z-score)” value (GlcA(b1-6)Gal) was 0.806 and the “glycan array binding signal (z-score)” value [7] was -0.444. The “glycan array binding signal (z-score)” value [8] was -0.227, the “glycan array binding signal (z-score)” value [9] was 4.61 and the “glycan array binding signal (z-score)” value [10] was 0.937. For the same binder, the “glycan array binding signal (z-score)” value [11] was 0.934, the “glycan array binding signal (z-score)” value [12] was 2.91 and the “glycan array binding signal (z-score)” value [13] was 3.99. For the same binder, the “glycan array binding signal (z-score)” value [14] was 3.13, the “glycan array binding signal (z-score)” value [15] was 2.39 and the “glycan array binding signal (z-score)” value [16] was 2.77. The “glycan array binding signal (z-score)” value [17] was -0.469, the “glycan array binding signal (z-score)” value [18] was 1.9 and the “glycan array binding signal (z-score)” value [19] was -0.164. The “glycan array binding signal (z-score)” value [20] was -0.195, the “glycan array binding signal (z-score)” value [21] was 4.58 and the “glycan array binding signal (z-score)” value [22] was 1.8. For the same binder, the “glycan array binding signal (z-score)” value [23] was 0.011, the “glycan array binding signal (z-score)” value [24] was 1.86 and the “glycan array binding signal (z-score)” value [25] was 1.07. The “glycan array binding signal (z-score)” value [26] was 0.174, the “glycan array binding signal (z-score)” value [27] was -0.203 and the “glycan array binding signal (z-score)” value [28] was -0.265. The “glycan array binding signal (z-score)” value [29] was 1.77, the “glycan array binding signal (z-score)” value (GlcNAc(b1-3)Fuc) was 1.21 and the “glycan array binding signal (z-score)” value (GlcNAc(b1-3)Gal) was -0.331.
